We go through 43 compounds from paper PMC4336329 (PLoS ONE, 2015).

Among all 310,000 compounds or so, about 14,000 (4.5%) showed an effect of 50% or more. Effects have a minus sign here. The list shows a part of the results.
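Note: peak tail current of the secondary pulse compared with the same well before compound.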

For the test, the target named is human ether-à-go-go-related gene (hERG) potassium channel (human, UniProt Q12809). In words: primary screen, population patch clamp on CHO cells stably expressing hERG.
Sequence of human ether-à-go-go-related gene (hERG) potassium channel (Q12809 whole entry, looked up): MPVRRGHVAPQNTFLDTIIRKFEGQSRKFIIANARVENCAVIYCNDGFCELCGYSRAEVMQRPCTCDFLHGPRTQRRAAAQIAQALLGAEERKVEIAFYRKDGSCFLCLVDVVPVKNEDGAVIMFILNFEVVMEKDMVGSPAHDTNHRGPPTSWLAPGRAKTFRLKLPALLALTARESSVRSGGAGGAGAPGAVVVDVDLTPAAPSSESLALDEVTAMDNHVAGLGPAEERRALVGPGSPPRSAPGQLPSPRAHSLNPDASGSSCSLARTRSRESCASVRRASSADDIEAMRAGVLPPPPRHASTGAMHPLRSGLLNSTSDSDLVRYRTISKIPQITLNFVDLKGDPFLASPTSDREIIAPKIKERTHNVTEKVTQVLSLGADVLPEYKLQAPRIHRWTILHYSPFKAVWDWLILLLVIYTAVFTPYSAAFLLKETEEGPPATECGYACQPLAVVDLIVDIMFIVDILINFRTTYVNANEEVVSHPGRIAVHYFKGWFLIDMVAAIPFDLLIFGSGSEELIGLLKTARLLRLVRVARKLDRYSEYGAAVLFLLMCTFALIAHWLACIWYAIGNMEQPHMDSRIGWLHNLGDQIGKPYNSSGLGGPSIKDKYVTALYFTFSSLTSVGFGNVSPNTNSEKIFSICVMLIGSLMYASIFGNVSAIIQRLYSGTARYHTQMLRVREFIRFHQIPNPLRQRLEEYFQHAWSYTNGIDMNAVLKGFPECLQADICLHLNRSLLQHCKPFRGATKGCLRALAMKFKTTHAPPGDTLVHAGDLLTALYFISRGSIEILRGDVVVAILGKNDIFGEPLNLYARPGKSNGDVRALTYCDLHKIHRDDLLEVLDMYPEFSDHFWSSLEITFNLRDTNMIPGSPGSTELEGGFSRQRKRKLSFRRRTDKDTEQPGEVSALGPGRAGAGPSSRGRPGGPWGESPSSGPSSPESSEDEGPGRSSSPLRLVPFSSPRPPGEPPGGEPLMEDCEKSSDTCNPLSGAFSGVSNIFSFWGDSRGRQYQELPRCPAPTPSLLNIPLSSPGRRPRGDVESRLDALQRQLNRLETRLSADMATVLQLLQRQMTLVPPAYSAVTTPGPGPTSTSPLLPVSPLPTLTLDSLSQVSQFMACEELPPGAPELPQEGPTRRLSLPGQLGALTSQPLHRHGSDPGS
Consider `Cc1ccnc(NC(=O)c2ccc3[nH]c(=O)c(=O)[nH]c3c2)c1`, for which the “hERG current change (%, negative = inhibition) at 10uM” value was found to be 5.34%.

With `CC(C)N(c1ccccc1)c1ccc(NC(=O)C2CCCO2)cc1` (stereo not shown), the “hERG current change (%, negative = inhibition) at 10uM” value is listed as 4.07%.

With `Cc1cc(C)nc(CCNC(=O)CC2C(=O)NCCN2Cc2ccc(F)cc2Cl)n1` (stereo not shown), the “hERG current change (%, negative = inhibition) at 10uM” value turned out to be 14.1%.

In the case of `CCC1Oc2ccccc2N(CC(=O)NCCCN2CCCC2)C1=O` (stereo not shown), the “hERG current change (%, negative = inhibition) at 10uM” value stood at 15.9%.

With `COC(=O)CNC(=O)C1(C)C=CCN1C(=O)c1ccccc1` (stereo not shown), the “hERG current change (%, negative = inhibition) at 10uM” value was 19.5%.

For the compound `O=C(Cc1ccc(Cl)cc1)NC1CCS(=O)(=O)C1` (stereo not shown), the “hERG current change (%, negative = inhibition) at 10uM” value is -6.2%.

Consider `CCOC(=O)C1=C(C)N=C2SC(C(=O)OC)=CC(=O)N2C1c1cc(OC)c(OC)c(OC)c1` (stereo not shown), for which the “hERG current change (%, negative = inhibition) at 10uM” value is listed as -0.0413%.

For the compound `O=C(COc1ccccc1F)N1CCN(S(=O)(=O)/C=C/c2ccccc2)CC1`, the “hERG current change (%, negative = inhibition) at 10uM” value was -2.05%.

`Nc1nc(Br)c2ccccc2c1-c1ccc(F)cc1`: the “hERG current change (%, negative = inhibition) at 10uM” value was -2.59%.

Take `Cc1nnc(NC(=O)c2ccc(C)c(S(=O)(=O)N3CCCCCC3)c2)s1`: the “hERG current change (%, negative = inhibition) at 10uM” value was 18.9%.

As for `O=S(=O)(c1ccc(Cl)cc1)N1CCC2(CC1)CO2`, the “hERG current change (%, negative = inhibition) at 10uM” value worked out at 4.7%.

For the compound `CCOc1ccccc1N(CC(=O)OC)S(C)(=O)=O`, the “hERG current change (%, negative = inhibition) at 10uM” value was determined as 12.9%.

For `CCOC(=O)c1c(-c2ccc(OC)cc2)cn2ccccc12`, the “hERG current change (%, negative = inhibition) at 10uM” value amounted to 0.601%.

On to `O=C(NCC1CCS(=O)(=O)C1)NCC1CCS(=O)(=O)C1` (stereo not shown), for which the “hERG current change (%, negative = inhibition) at 10uM” value is 3.67%.

Regarding `Cc1ccc(S(=O)(=O)c2c(C)nn(C(C)(C)C)c2OC(=O)CC(C)C)cc1`, the “hERG current change (%, negative = inhibition) at 10uM” value is -0.853%.

As for `COc1ccc(/C=C/C(=O)Nc2ccccc2C(=O)NCC(c2ccc(OC)cc2)N(C)C)cc1` (stereo not shown), the “hERG current change (%, negative = inhibition) at 10uM” value is listed as -49.6%.

For the compound `CCn1ccnc1C(O)c1cccc(OC)c1OC` (stereo not shown), the “hERG current change (%, negative = inhibition) at 10uM” value is 13.6%.

On to `O=C(c1cn(CC(=O)N2CCCCC2)c2ccccc12)C1CC1`, for which the “hERG current change (%, negative = inhibition) at 10uM” value is 7.66%.

As for `Cc1cc(NC(c2ccc(Cl)cc2)c2ccc3cccnc3c2O)no1` (stereo not shown), the “hERG current change (%, negative = inhibition) at 10uM” value is on record as -6.4%.

`CCN(CC)CCNC(=O)c1sc2nc(-c3ccccc3)cn2c1C`: the “hERG current change (%, negative = inhibition) at 10uM” value was -67.4%.

For the compound `COc1cc(-c2nnc(SC(C)C(=O)Nc3c(C)n(C)n(-c4ccccc4)c3=O)o2)cc(OC)c1OC` (stereo not shown), the “hERG current change (%, negative = inhibition) at 10uM” value is listed as -7.75%.

For `Cc1ncc(CN2CCCC(C(=O)c3ccc(C(C)(C)C)cc3)C2)s1` (stereo not shown), the “hERG current change (%, negative = inhibition) at 10uM” value was -72.8%.

For the compound `C=CCNC(=S)Nc1ccccc1`, the “hERG current change (%, negative = inhibition) at 10uM” value is listed as -8.73%.

As for `O=C(CCOc1ccccc1F)N1CCN(c2ccccc2O)CC1`, the “hERG current change (%, negative = inhibition) at 10uM” value was -6.27%.

For `NC(=O)C1CCN(CC(=O)Nc2cc(Cl)ccc2Oc2ccccc2)CC1`, the “hERG current change (%, negative = inhibition) at 10uM” value is given as -67%.

As to `O=C1OCCC1Sc1nnc(-c2ccc3c(c2)OCO3)o1` (stereo not shown), the “hERG current change (%, negative = inhibition) at 10uM” value was found to be 12.5%.

As to `COCCN(C(=O)Nc1ccc(OC)cc1OC)C1CCN(C(C)=O)CC1`, the “hERG current change (%, negative = inhibition) at 10uM” value worked out at 7.58%.

As to `COc1cccc(CNC(=O)CCCSc2ccccc2)c1`, the “hERG current change (%, negative = inhibition) at 10uM” value was -10.3%.

For the compound `O=C(Nc1ccc(F)cc1)N1CCC(c2nc3c(nnn3Cc3cccc(Cl)c3)c(=O)[nH]2)CC1`, the “hERG current change (%, negative = inhibition) at 10uM” value is -4.28%.

For `CC(C)c1ccc(N(C(=O)c2ccc3c(c2)OCO3)C2C=CS(=O)(=O)C2)cc1` (stereo not shown), the “hERG current change (%, negative = inhibition) at 10uM” value is reported as -66.2%.

As to `COc1ccc(S(=O)(=O)N(C)CC(=O)N2CCN(C)CC2)cc1Cl`, the “hERG current change (%, negative = inhibition) at 10uM” value amounted to 7.62%.

Take `O=C(Nc1c2c(nn1-c1ccccc1)CS(=O)(=O)C2)c1ccco1`: the “hERG current change (%, negative = inhibition) at 10uM” value is recorded as -9.21%.

For the compound `O=C(Nc1ccc(Cl)cc1F)c1cc(S(=O)(=O)N2CCCCC2)ccc1F`, the “hERG current change (%, negative = inhibition) at 10uM” value is reported as -0.146%.

As to `O=C(Cn1cnc2sc3c(c2c1=O)CCCC3)NCCC(=O)N1CCC2(CC1)OCCO2`, the “hERG current change (%, negative = inhibition) at 10uM” value is listed as -6.96%.

Regarding `Cc1ccc(NC(=O)C2CCCN2S(=O)(=O)c2ccc(-c3ccc(=O)[nH]n3)s2)c(C)c1` (stereo not shown), the “hERG current change (%, negative = inhibition) at 10uM” value is listed as -15.4%.

Consider `Cc1c(CCC(=O)N[C@@H](CC(C)C)C(=O)O)c(=O)oc2c(C)c3oc4c(c3cc12)CCCC4`, for which the “hERG current change (%, negative = inhibition) at 10uM” value is reported as -8.19%.

Consider `COc1ccc(-c2cc(=O)[nH]c(=S)[nH]2)cc1`, for which the “hERG current change (%, negative = inhibition) at 10uM” value is reported as 13.5%.

Turning to `Cc1ccccc1NC(=O)c1cccc(C(=O)Nc2ccccc2C)n1`, the “hERG current change (%, negative = inhibition) at 10uM” value is listed as 6.81%.

For `CC(=O)c1ccc(OC(C)C)c(Cc2c(O)nc(N)[nH]c2=O)c1`, the “hERG current change (%, negative = inhibition) at 10uM” value is listed as -4.54%.

In the case of `Cc1c(C(=O)N2CCCCC2)c(S(=O)(=O)N2CCC(C)CC2)c(C)n1C`, the “hERG current change (%, negative = inhibition) at 10uM” value is 3.48%.

As to `COc1ccccc1N=c1oc2c(OC)cccc2cc1C(=O)NCc1ccco1`, the “hERG current change (%, negative = inhibition) at 10uM” value is -1.4%.

`Cc1ccc(C)c(N2CCN(S(=O)(=O)c3ccc4c(c3)CC(=O)N4C)CC2)c1`: the “hERG current change (%, negative = inhibition) at 10uM” value is on record as -19.4%.

As for `O=C(Nc1ccccc1)C(=O)Nc1ccc2c(c1)N(C(=O)C1CC1)CCC2`, the “hERG current change (%, negative = inhibition) at 10uM” value is -5.26%.
